Source: article PMC4336329 (PLoS ONE, 2015)
About 2,200 (0.71%) of roughly 310,000 compounds showed an effect of 50% or more. The effect is printed as a negative number. The list shows a part of the results.

Target: human ether-à-go-go-related gene (hERG) potassium channel (human, UniProt Q12809)
Experiment: primary screen, population patch clamp on CHO cells stably expressing hERG

human ether-à-go-go-related gene (hERG) potassium channel, sequence (Q12809 whole entry, looked up): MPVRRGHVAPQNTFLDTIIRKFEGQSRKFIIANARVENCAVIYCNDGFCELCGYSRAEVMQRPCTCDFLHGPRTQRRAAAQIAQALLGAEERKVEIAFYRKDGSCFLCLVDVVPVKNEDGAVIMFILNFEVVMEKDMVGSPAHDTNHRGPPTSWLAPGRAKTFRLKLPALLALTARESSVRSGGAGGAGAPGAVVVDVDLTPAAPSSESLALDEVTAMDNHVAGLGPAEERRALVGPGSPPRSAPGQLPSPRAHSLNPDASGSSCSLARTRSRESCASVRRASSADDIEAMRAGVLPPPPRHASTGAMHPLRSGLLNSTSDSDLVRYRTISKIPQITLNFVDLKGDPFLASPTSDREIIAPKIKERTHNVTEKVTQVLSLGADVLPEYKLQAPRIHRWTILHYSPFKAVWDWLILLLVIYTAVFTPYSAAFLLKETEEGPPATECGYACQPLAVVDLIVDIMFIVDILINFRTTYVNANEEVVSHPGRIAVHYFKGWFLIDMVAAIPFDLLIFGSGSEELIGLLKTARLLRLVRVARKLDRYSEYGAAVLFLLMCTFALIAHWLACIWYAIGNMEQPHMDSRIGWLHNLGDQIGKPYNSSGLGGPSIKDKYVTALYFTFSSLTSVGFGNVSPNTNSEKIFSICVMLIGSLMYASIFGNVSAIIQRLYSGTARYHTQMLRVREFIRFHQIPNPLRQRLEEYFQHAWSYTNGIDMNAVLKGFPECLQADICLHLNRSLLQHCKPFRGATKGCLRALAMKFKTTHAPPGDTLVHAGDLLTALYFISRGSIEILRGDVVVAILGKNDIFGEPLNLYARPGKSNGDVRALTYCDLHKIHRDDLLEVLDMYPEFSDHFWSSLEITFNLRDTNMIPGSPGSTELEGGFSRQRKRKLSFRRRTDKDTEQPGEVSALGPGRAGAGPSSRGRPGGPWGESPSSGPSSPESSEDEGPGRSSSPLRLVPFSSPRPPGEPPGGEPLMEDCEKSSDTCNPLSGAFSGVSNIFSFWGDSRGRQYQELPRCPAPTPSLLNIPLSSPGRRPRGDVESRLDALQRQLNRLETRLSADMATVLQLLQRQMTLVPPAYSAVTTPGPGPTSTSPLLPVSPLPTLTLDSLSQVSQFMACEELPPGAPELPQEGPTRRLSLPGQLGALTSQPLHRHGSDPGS

SMILES	hERG current change (%, negative = inhibition) at 1uM [%]
O=C(NCc1cccnc1)C(=O)Nc1ccc([N+](=O)[O-])cc1	2.54
O=C(OC(C(=O)NCc1cccs1)c1ccc(F)cc1)c1ccco1 (centres unmarked)	12.4
CC(C)C(=O)C1=Cc2cccc([N+](=O)[O-])c2OC1N1CCOCC1 (centres unmarked)	5.69
Cc1nn(CC(=O)N/N=C/c2cccs2)c(C)c1[N+](=O)[O-]	10.4
CC(C(=O)Nc1cccc(S(=O)(=O)N2CCOCC2)c1)N1CCN(c2ccc(F)cc2)CC1 (centres unmarked)	4.54
CCCN1CCN(CCCNC(=O)c2cc3c(=O)oc4ccc(C)cc4c3s2)CC1	5.67
O=C(CCc1ccccc1)NNC(=O)c1ccccc1C(=O)O	8.54
CCN(CC)C(=O)CSc1nnc([C@H](Cc2c[nH]c3ccccc23)NC(=O)OC(C)(C)C)o1	-14.7
O=C(Cc1ccc(F)cc1)OCC(=O)N1CCN(S(=O)(=O)c2ccc(Cl)cc2)CC1	-1.45
O=S(=O)(c1ccc(Cl)cc1)N1CCCC1c1nc2ccccc2s1 (centres unmarked)	-4.67
COc1ccccc1NC(=O)Cn1c(O)c(N=NC(=O)c2ccccc2O)c2ccccc21	13.3
CCOC(=O)c1sc(NC(=O)CN(CC(C)C)CC(C)C)c(C(=O)OCC)c1C	-6.54
O=C(NCCN1CCCCC1)Nc1ccccc1	-2.18
O=C(Cn1cc(C(F)(F)F)ccc1=O)NCC1CCCO1 (centres unmarked)	15.8
Cc1ccc(C(=O)NCc2ccco2)cc1S(=O)(=O)N1CCCCC1	7.4
O=C(NCC(c1cccnc1)N1CCN(c2ccc(F)cc2)CC1)OCc1ccccc1 (centres unmarked)	-10.1
Cl.O=C(c1ccc(Cl)c(S(=O)(=O)N2CCCCCC2)c1)N1CCN(CCO)CC1	-7.38
CC1CCCCC1NC(=O)C1CCN(S(=O)(=O)c2ccc(-n3cnnn3)cc2)CC1 (centres unmarked)	5.61
CC1(C)Cc2c(cnn2-c2ccc(F)cc2)C(NC(=O)c2cnccn2)C1 (centres unmarked)	-6.77
C=CCNC(=O)C(=O)Nc1cc2c3c(c1)CCC(=O)N3CCC2	-14.9
Cn1c(CNC(=O)OC(C)(C)C)n[nH]c1=S	-1.39
Nc1c(-c2cccc(Cl)c2)cnn1-c1cccc([N+](=O)[O-])c1	-25

SMILES	hERG current change (%, negative = inhibition) at 1uM [%]
COc1ccc(-n2nnc3c(=O)n(CC(=O)NCC4CCCO4)cnc32)cc1 (centres unmarked)	6.12
Cc1cc(C)c2[nH]c(=O)c(=O)[nH]c2c1	8.64
CCN(CC)S(=O)(=O)c1ccc(N2CCOCC2)c(NC(=O)COc2ccc(C#N)cc2)c1	5.39
Cc1ccc(S(=O)(=O)N2CCN(C(=O)c3ccc(S(=O)(=O)N4CCCC4)cc3)CC2)cc1	7.22
Fc1ccccc1-c1csc(-c2cccnc2)n1	10.4
COc1cc(-c2cc(C(=O)NCCc3ccc(S(N)(=O)=O)cc3)c3ccccc3n2)cc(OC)c1OC	8.14
COc1ccccc1-n1c(SCC(=O)O)nnc1-c1ccc(S(=O)(=O)N2CCCCC2)cc1	-3.86
COCCCNC(=S)NNC(=O)c1ccccc1Br	11.3
CC(C)(C)n1nnnc1C(c1cccs1)N1CCN(Cc2ccccc2)CC1.Cl (centres unmarked)	-0.642
COc1cccc(-c2cc3nc(-c4ccccc4)cc(N4CCC5(CC4)OCCO5)n3n2)c1	10.2
Cc1cccc(C(=O)Nc2cccc(OC(=O)c3cccc(C)c3)c2)c1	12
COc1ccc(C2CC(c3ccc4ccccc4c3)=NN2C(=O)CN2CCC(C(N)=O)CC2)cc1 (centres unmarked)	6.63
CCCNC(=O)c1cc(S(=O)(=O)N2CCc3ccccc32)cn1C	11.8
CC(=O)c1csc(Nc2ccccc2Cl)n1	12.9
CCC(C)C(=O)Nc1cc(Cl)ccc1C(=O)O (centres unmarked)	12.9
CCCCN(C(=O)CSc1cc(C)c2ccccc2n1)c1c(N)n(Cc2ccccc2)c(=O)[nH]c1=O	9.11
CC1CCC2(CC1)NC(=O)N(CC(=O)N1CCN(S(=O)(=O)c3ccc4c(c3)CCC4)CC1)C2=O (centres unmarked)	7.9
COc1cc(CC(=O)OCC(=O)c2c[nH]c3ccccc23)cc(OC)c1OC	2.96
C/C(=N/NS(=O)(=O)c1ccc(CC(C)C)cc1)c1ccncc1	11
COc1ccccc1NC(=O)Nc1nnc(Cc2ccccc2F)s1	17.3
O=C(CCNC(=O)c1ccccc1Cl)Nc1ccc(Cl)c(C(F)(F)F)c1	11.8
COc1ccc(CC(=O)NCc2n[nH]c(=S)n2-c2ccc(F)cc2)cc1	23.3

SMILES	hERG current change (%, negative = inhibition) at 1uM [%]
O=C(O)C(=O)O.O=C(c1cccnc1)N1CCN(Cc2ccc3ccccc3c2)CC1	-8.13
Fc1cccc(NC(=S)NCCCN2CCOCC2)c1	-14.8
COc1ccc2c3c(cccc13)C(=O)N(O)C2=O	0.0209
O=C(NC1CCCC1)C1CCN(C(=O)Nc2cccc(Cl)c2)CC1	15.5
CC1(C)CN(O)CCN1O	6.68
Cc1nc2cc(NS(=O)(=O)c3cccc4cccnc34)ccc2s1	15.3
CS(=O)(=O)c1ccc(Cl)c(NC(=O)COC(=O)CCc2c[nH]c3ccccc23)c1	-12.3
Cn1nc(-c2ccccc2)c(C(O)c2ccc(Cl)cc2)c1Cl (centres unmarked)	3.78
Cc1cc(C)cc(NC(=O)C2CCCN2S(=O)(=O)c2ccc3c(c2)n(C)c(=O)c(=O)n3C)c1 (centres unmarked)	4.5
COc1cccc(OC)c1C(=O)Nc1ccc2c(c1)N(S(=O)(=O)c1cccs1)CCC2	16.7
CN1CCN(S(=O)(=O)c2cccc(C(=O)Oc3ccc(C(C)(C)C)cc3)c2)CC1	37.2
CCOC(=O)N/N=C1\CC(C)S(=O)(=O)c2ccc(Cl)cc21 (centres unmarked)	9.57
CCCN(CCC)C(=O)c1cc2c(=O)n3cccc(C)c3nc2s1	19.8
CCCc1ccc(NC(=O)C2CCN(c3cnccn3)CC2)cc1	4.51
O=C(CCCc1nc2ccccc2s1)NC1CCOC1=O (centres unmarked)	6.48
N#C/C(=C/c1ccc(N2CCCCCC2)o1)c1cccc(F)c1	8.95
C=CCN1C(=O)NC(=O)/C(=C/c2ccc(OC)c(CSc3ccccn3)c2)C1=O	9.78
COc1ccc(NC(=O)c2cc(C)no2)cc1OC	7.43
O=C(N/C(=C\c1ccc(F)cc1)C(=O)N1CCOCC1)c1ccccc1	-6.04
O=C1NCCN1c1ccc(CN2CCN(C3CCCCC3)C(CCO)C2)cc1 (centres unmarked)	3.87
Cc1cc(C)n(-c2ccc(C(=O)OCC(=O)NCc3ccc(Cl)cc3)cc2)n1	0.232
O=C(O)CCc1ccc(-c2ccccc2)n1-c1cccc(C(=O)O)c1	15.2

SMILES	hERG current change (%, negative = inhibition) at 1uM [%]
Cc1[nH]c2ccccc2c1C(=O)CN1CCC(C(N)=O)(N2CCCCC2)CC1	15.4
COc1ccc(S(=O)(=O)Nc2cccc(F)c2)cc1C	12.3
CCn1cc(C(=O)NCCc2ccccc2)c(=O)c2cc(S(=O)(=O)N(C)C)ccc21	2.83
CN(C)c1ccc(C2(c3ccc(N(C)C)cc3)OC(=O)c3cc(N)ccc32)cc1	14.6
Cc1ccc(N2CC(C(=O)Nc3ccc(S(=O)(=O)N4CCOCC4)cc3)CC2=O)cc1Cl (centres unmarked)	7.84
CSc1cccc(CN2CCN(CCc3ccccc3)C(CCO)C2)c1 (centres unmarked)	-45.3
Cc1nn(CC(=O)N2CCN(Cc3ccccc3)CC2)c(=O)c2ccccc12	6.6
CC(=O)c1ccc(C(=O)Nc2ccc(N3CCOCC3)cc2)cc1	13.6
O=Cc1cn(Cc2ccccc2F)c2ccccc12	15
CC1CCN(C(=O)CSc2nnc(-c3ccco3)o2)CC1	-7.81
Cc1nc2ccccc2c(=O)n1NCc1cc(Br)cs1	-2.72
O=C(CSc1nnc(Cc2cccs2)n1-c1ccc(Cl)cc1)NCc1ccc2c(c1)OCO2	-5.23
COc1ccc(COC(=O)c2ccc(S(=O)(=O)N3CCC(C)CC3)cc2)cc1	11.8
CC(C)(C)N1C(=O)[C@H]2[C@@H](c3ccc(Br)cc3)N3C(=O)N(c4cccc(Cl)c4)C(=O)[C@@]3(C)[C@H]2C1=O	11.2
CCN(CC)CCCn1c(=S)[nH]c2ncccc2c1=O	4.46
Cc1ccc(C)c(SCC(=O)Nc2ccc(S(=O)(=O)Nc3ncccn3)cc2)c1	12.7
O=C(CSc1nc(-c2ccc(F)cc2)nc2ccc(F)cc12)Nc1cccc(C(=O)O)c1	19.8
CC(C)C(=O)N1CCN(c2nc(-c3ccc(Cl)cc3)cs2)CC1	-69.6
CNC(=O)NC(=O)C(OC(=O)CCNS(=O)(=O)c1ccccc1)c1ccccc1 (centres unmarked)	8.02
O=S(Cc1ccc(Cl)cc1)CC(O)COc1ccc(Cl)cc1 (centres unmarked)	13.2
